Measurements from patent US20240270806A1 (Chugai, published 2024).

What was measured:
Test in all cases: cell-based or functional assay
[1] = target: T1, Human IL-12 receptor (human IL-12Rb1 and IL-12Rb2) (human, UniProt P42701 24-662; Q99665 24-862)
[2] = target: T1, Human IL-12 receptor (human IL-12Rb1 …); remark: listed apart in the source
[3] = target: T1, Human IL-12 receptor (human IL-12Rb1 …); remark: listed apart in the source

B1: Bivalent IL-12 fusion protein FP31 (other)
heavy: QVQLVQSGAEVKKPGSSVKVSCKASGGTFSDYYLHWSRQAPGQGLEWMGWIDPENGDTEYAPKFQGRVTITADESTSTAYMELSSLRSEDTAVYYCARNKELRYIDVWGQGTLVTVSSTSGSGRSATPRGASTKGPSVFPLAPCSKSTSGGTAALGCLVKDYFPEPVTVSWNSGALTSGVHTFPAVLQSSGLYSLSSVVTVPSSSLGTQTYICNVNHKPSNTKVDKRVGGGGSGGGGS[human IgG1 Fc with changes cut from this listing]GSGGSGGSGGSGGSGGSIWELKKDVYVVELDWPPDAPGEMVVLTCDTPEEDGITWTLDQSSEVLGSGKTLTIQVKEFGDAGQYTCHKGGEVLSHSLLLLHKKEDGIWSTDILKDQKEPKNKTFLRCEAKNYSGRFTCWWLTTISTDLTFSVKSSRGSSDPQGVTCGAATLSAERVRGDNKEYEYSVECQEDSACPAAEESLPIEVMVDAVHKLKYENYTSSFFIRDIIKPDPPKNLQLKPLKNSRQVEVSWEYPDTWSTPHSYFSLTFCVQVQGKHKEKKDRVFTDKTSATVICRKNASISVRAQDRYYSSSWSEWASVPCSGGGGSGGGGSGGGGSGGGGSNLPVATPDPGMFPCLHHSQNLLRAVSNMLQKARQTLEFYPCTSEEIDHEDITKDKTSTVEACLPLELTKNESCLNSRETSFITNGSCLASRKTSFMMALCLSSIYEDLKMYQVEFKTMNAKLLMDPKRQIFLDQNMLAVIDELMQALNFNSETVPQKSSLEEPDFYKTKIKLCILLHAFRIRAVTIDRVMSYLNAS
light: DIVMTQSPLSLPVTPGEPASISCRASQSISINLHWYQQKPGQAPRQLIAFASQSISGVPSRFSGSGSGTDFTLTISSLQPEDFATYYCQQSNSFPLTFGQGTKVEIKRTVAAPSVFIFPPSDEQLKSGTASVVCLLNNFYPREAKVQWKVDNALQSGNSQESVTEQDSKDSTYSLSSTLTLSKADYEKHKVYACEVTHQGLSSPVTKSFNRGEC
Question: B1 was tested. Which “Fold change (window), IL-12 luciferase assay” value [1] did it give?
Answer: Its value is 583 fold.

Question: What about the “Improvement in window against FP14, IFN gamma release by human PBMC” value [2] of the same binder?
Answer: The value was no more than 5.8 fold.

Question: What about the “Improvement in window against FP14, IL-12 luciferase assay” value [2] of the same binder?
Answer: The value was greater than 25 fold.

Question: What about the “Fold change (window), Donor 1, IFN gamma release by human PBMC” value [3] of the same binder?
Answer: The value was 271 fold.

Question: What about the “Fold change (window), Donor 2, IFN gamma release by human PBMC” value [3] of the same binder?
Answer: The value was 235 fold.

Question: What about the “Fold change (window), Donor 3, IFN gamma release by human PBMC” value [3] of the same binder?
Answer: Its value is 319 fold.
